This note sets out measurements from publication PMC6212790.

The list shows a part of the results. At the low end of the ranking the order means little.

The target of this assay is T1, GST-Rok-C97-191 (UniProt O34857).
T1 sequence: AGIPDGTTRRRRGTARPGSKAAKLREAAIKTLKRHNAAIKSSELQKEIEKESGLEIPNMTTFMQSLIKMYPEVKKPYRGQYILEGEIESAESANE
Description: protein binding microarray.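 Note: rank score from −0.5 (least bound) to 0.5 (best bound).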 To be noted: Rok is a gene silencer of Bacillus subtilis; high values mean tight binding; most listed sequences are background and not binding sites; double strand, one strand shown.
In turn, ATGTCTTA yielded a binding signal of 0.121 E-score.
As to AGCGATTG, the binding signal was -0.0954 E-score.
AGACCTTA: the binding signal is -0.133 E-score.
Regarding AGGGGGCC, the binding signal was -0.296 E-score.
As for ATGGATCC, the binding signal is -0.287 E-score.
The same measure for TGAATAAA: -0.0759 E-score; for GGCAGAAA: -0.00585 E-score; for AGAGAGGA: -0.0391 E-score.
The value for CCGAGACG was -0.277 E-score; that for TCGAGTAA was 0.211 E-score.
On to CAGACTGA, for which the binding signal was -0.2 E-score.
The value for TACATATA was 0.349 E-score; that for TCATTTAA was 0.0413 E-score.
The same measure for CCCACAAA: -0.0087 E-score; for AAATCAAG: 0.113 E-score.
The same measure for CTCAAAAC: 0.206 E-score.
ATACGTCG came in with a binding signal of 0.104 E-score.
The same measure for GGCCACCC: -0.275 E-score; for CATTAGAC: -0.0549 E-score.
The value for AATTTGAT was 0.227 E-score.
In the case of ATACCCAA, the binding signal was 0.154 E-score.
The value for AGAGAGGG was -0.199 E-score; that for TGTACAAA was 0.355 E-score; that for AGGGTGAT was -0.206 E-score.
In turn, CATGCTCG came in with a binding signal of 0.00598 E-score.
The same measure for TAATACAA: 0.297 E-score.
In turn, AGATACTC showed a binding signal of 0.285 E-score.
As for AGGAACTC, the binding signal is -0.0368 E-score.
The same measure for AAACGGTC: -0.126 E-score; for CTTCGGAC: -0.14 E-score; for GCCGCTCA: -0.293 E-score.
The same measure for GCTGCCAC: -0.306 E-score; for AGTCATAT: 0.117 E-score; for ATAGGGGA: -0.145 E-score.
AATTTTAC displayed a binding signal of 0.384 E-score.
The value for AGGAGTTG was -0.135 E-score; that for GAACCCAC was -0.0684 E-score.
Consider GAGCCGAC, for which the binding signal was -0.236 E-score.
In the case of AACCGAGC, the binding signal is -0.224 E-score.
The sequence CACACAGC came in with a binding signal of 0.0787 E-score.
GATGGACA: the binding signal was -0.147 E-score.
In the case of CAACTTAG, the binding signal came to 0.18 E-score.
The same measure for AAGCAGTA: 0.143 E-score; for GAGCTAAA: 0.105 E-score; for ATCCACCC: 0.074 E-score.
For CACAAAGC, the binding signal was -0.0352 E-score.
In turn, GAGTATGC registered a binding signal of -0.233 E-score.
Take ACATGTTA: the binding signal worked out at 0.144 E-score.
CCGCTTGC: the binding signal is -0.231 E-score.
With CACTGGGG, the binding signal is -0.295 E-score.
For the sequence CATAACAA, the binding signal amounted to 0.144 E-score.
CGGGTCCC yielded a binding signal of -0.27 E-score.
The same measure for AAGCTACT: 0.195 E-score; for AGGTCCAC: -0.153 E-score; for CATCCTCA: -0.0453 E-score.
GGAAGCAC came in with a binding signal of -0.182 E-score.
The same measure for ATGTCTAA: 0.116 E-score; for GATCCGTA: -0.0215 E-score; for AAGAACAC: -0.0223 E-score.
The value for ACAGATCG was -0.206 E-score.
In turn, CACCCCCC came in with a binding signal of -0.32 E-score.
For the sequence GATGGGAC, the binding signal is -0.214 E-score.
The same measure for TCCTCGCA: -0.118 E-score; for CTTAGACA: -0.239 E-score; for GTGGATAA: 0.0571 E-score.
Consider CATCTAAG, for which the binding signal was -0.163 E-score.
The value for ACGGCACC was -0.0534 E-score; that for ACCGGCGT was -0.179 E-score.
The same measure for ATCTCTTC: -0.0214 E-score; for CATTTCGC: 0.126 E-score.
The same measure for CCTAGTAG: 0.25 E-score; for AGCCAGAA: -0.242 E-score; for CTTATTCC: 0.00112 E-score.
Consider CTAAGGTA, for which the binding signal worked out at 0.139 E-score.
The same measure for AACCATAG: 0.071 E-score.
The value for GCGGTGCC was -0.364 E-score; that for ATTGAAGG was 0.0532 E-score.
The same measure for ACGAGTCA: -0.245 E-score; for AATGAGCA: -0.0827 E-score.
The sequence CGGGACAC gave a binding signal of -0.172 E-score.
AAGGCATA yielded a binding signal of -0.0431 E-score.
The same measure for GAAATTTA: 0.258 E-score; for AATACCTC: 0.101 E-score; for ATAAAATA: 0.396 E-score.
The same measure for AGAACTAC: 0.369 E-score.
The same measure for AATATCCG: 0.0406 E-score; for CGAGCGTA: -0.0883 E-score; for ACAGCCAT: -0.0022 E-score.
Sequence AATCATCC yielded a binding signal of -0.149 E-score.
Regarding CTGCGTGC, the binding signal was -0.253 E-score.
The same measure for ACCTAGAC: 0.0761 E-score; for GTCATAGA: -0.052 E-score; for CCCGATGA: -0.22 E-score.
The value for CTTGCGCC was -0.355 E-score.
The same measure for ATATACAT: 0.288 E-score; for CGCTCAGA: -0.179 E-score; for AGGCTTGC: 0.12 E-score.
In turn, AGAGTCAG came in with a binding signal of 0.0431 E-score.
For ACAAGCGC, the binding signal was -0.153 E-score.
The same measure for CCGATCGC: -0.155 E-score; for TGACAAAA: 0.0786 E-score.
The value for AGTGAATC was -0.0993 E-score; that for AAGACTGC was -0.143 E-score; that for AGATGACA was 0.0696 E-score.
The value for ACTATTGC was 0.313 E-score; that for AAACGAAC was -0.191 E-score; that for TCCCCGGA was -0.157 E-score.
CTGCAACC displayed a binding signal of -0.172 E-score.
The same measure for ACCCTTCT: -0.167 E-score; for TTGCCCAA: -0.0422 E-score; for CCATCCAA: -0.0599 E-score.
The value for ACCGTTTC was -0.153 E-score.
The value for CAAAGCTA was 0.11 E-score; that for CGATGAGC was -0.189 E-score; that for ATCGTACG was 0.123 E-score.
In turn, ATCCGTGG came in with a binding signal of -0.298 E-score.
GAAAAAGA returned a binding signal of -0.0353 E-score.
The same measure for AGATTGCG: 0.146 E-score.
As to GTCGTCCA, the binding signal was -0.198 E-score.
The value for GTAATCTA was 0.313 E-score.
The same measure for GGTGTAAA: 0.025 E-score; for GACTGTCC: -0.22 E-score.
The value for CGTTAATA was 0.245 E-score; that for GACGTAGC was -0.0196 E-score.
With TCTAGGAA, the binding signal is 0.0695 E-score.
In the case of CATTTAGA, the binding signal was -0.0716 E-score.
Sequence GCCTACGC returned a binding signal of -0.126 E-score.
With GCCCATCA, the binding signal is -0.301 E-score.
The value for ATGGGCAA was -0.0382 E-score; that for ACCAGGCG was -0.1 E-score.
The value for CGGTTCAA was -0.124 E-score; that for CGTAGTTC was 0.213 E-score.
The same measure for CAGCCGCA: -0.149 E-score.
Sequence AGCTACAA came in with a binding signal of 0.209 E-score.
The same measure for CACCTAAG: -0.176 E-score; for AAGGCGTG: -0.132 E-score; for CTATTTAC: 0.349 E-score.
The same measure for CGGAAGAC: -0.236 E-score; for GCACTACC: 0.0373 E-score; for CAGTTACA: 0.29 E-score.
The sequence ACGGTCAC had a binding signal of 0.0646 E-score.
The sequence ACGTGTCG had a binding signal of -0.138 E-score.
The same measure for GCACTTGA: -0.0251 E-score.
CTTTATGA showed a binding signal of 0.139 E-score.
The same measure for AGTCGAGA: -0.0558 E-score; for GGGGATAC: -0.179 E-score.
AACAATGG registered a binding signal of -0.0594 E-score.
AAGTAATT: the binding signal is 0.297 E-score.
CGCCTAAG: the binding signal was -0.134 E-score.
Sequence ACGGTAAA returned a binding signal of 0.286 E-score.
Sequence AATACTTA returned a binding signal of 0.234 E-score.
Sequence CACTCGGA gave a binding signal of -0.0385 E-score.
Sequence GTCCGAGA gave a binding signal of -0.151 E-score.
In the case of ATAACTGA, the binding signal turned out to be 0.144 E-score.
ATGCCAGA: the binding signal is -0.196 E-score.
With CCTTTCTA, the binding signal amounted to 0.108 E-score.
The sequence TTAGATAA registered a binding signal of 0.139 E-score.
With GGCTATGA, the binding signal is -0.0286 E-score.
The value for ATAACGCA was 0.163 E-score; that for ACCGCGCG was 0.0116 E-score.
As to ACTTTCAG, the binding signal was -0.0105 E-score.
On to GTGATATA, for which the binding signal is 0.245 E-score.
The same measure for GGGCGACC: -0.415 E-score; for CCGGCCCA: -0.223 E-score.
Sequence AAAGTCGG had a binding signal of -0.062 E-score.
The value for AGCATTGG was -0.14 E-score.
As to AACCCCCA, the binding signal was -0.393 E-score.
The same measure for CTCTATAA: 0.0363 E-score; for ATTTTACA: 0.297 E-score.
The same measure for GAGCTATC: 0.164 E-score; for AGCAGACG: 0.00301 E-score.
Consider AATATTCT, for which the binding signal worked out at 0.347 E-score.
